The list shows a part of the results.
Legend:
Assay in all cases: glycan array binding signal (z-score within array); higher = stronger binding
Settings in all cases: glycan notation: IUPAC condensed, linker removed
[1] = molecular target: Neu5Ac(a2-6)Gal(b1-4)GlcNAc
Summary of the method: (§1)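 Glycan array data came from 3228 arrays in the Consortium for Functional Glycomics database, and only arrays with an available protein sequence were kept. Glycan names were put into IUPAC-condensed notation, and columns mapping to the same glycan were averaged. The binding signal is a within-array Z-score, averaged across arrays of one protein sequence run at different concentrations or buffers and across linkers. A negative Z-score can be read as non-binding.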

[2] = molecular target: Neu5Ac(a2-6)Gal(b1-4)GlcNAc(b1-2)Man(a1-3)Man(b1-4)GlcNAc(b1-4)GlcNAc
Summary of the method: as §1

[3] = molecular target: Neu5Ac(a2-6)Gal(b1-4)GlcNAc(b1-2)Man(a1-3)[Gal(b1-4)GlcNAc(b1-2)Man(a1-6)]Man(b1-4)GlcNAc(b1-4)GlcNAc
Summary of the method: as §1

[4] = molecular target: Neu5Ac(a2-6)Gal(b1-4)GlcNAc(b1-2)Man(a1-3)[GlcNAc(b1-2)Man(a1-6)]Man(b1-4)GlcNAc(b1-4)GlcNAc
Summary of the method: as §1

[5] = molecular target: Neu5Ac(a2-6)Gal(b1-4)GlcNAc(b1-2)Man(a1-3)[GlcNAc(b1-2)Man(b1-4)GlcNAc(b1-2)Man(a1-6)]Man(b1-4)GlcNAc(b1-4)GlcNAc
Summary of the method: as §1

[6] = molecular target: Neu5Ac(a2-6)Gal(b1-4)GlcNAc(b1-2)Man(a1-3)[Man(a1-6)]Man(b1-4)GlcNAc(b1-4)GlcNAc
Summary of the method: as §1

[7] = molecular target: Neu5Ac(a2-6)Gal(b1-4)GlcNAc(b1-2)Man(a1-3)[Neu5Ac(a2-6)Gal(b1-4)GlcNAc(b1-2)Man(a1-6)]Man(b1-4)GlcNAc(b1-4)GlcNAc
Summary of the method: as §1

[8] = molecular target: Neu5Ac(a2-6)Gal(b1-4)GlcNAc(b1-2)Man(a1-6)Man(b1-4)GlcNAc(b1-4)GlcNAc
Summary of the method: as §1

[9] = molecular target: Neu5Ac(a2-6)Gal(b1-4)GlcNAc(b1-2)Man(a1-6)[Gal(b1-4)GlcNAc(b1-2)Man(a1-3)]Man(b1-4)GlcNAc(b1-4)GlcNAc
Summary of the method: as §1

[10] = molecular target: Neu5Ac(a2-6)Gal(b1-4)GlcNAc(b1-2)Man(a1-6)[GlcNAc(b1-2)Man(a1-3)]Man(b1-4)GlcNAc(b1-4)GlcNAc
Summary of the method: as §1

[11] = molecular target: Neu5Ac(a2-6)Gal(b1-4)GlcNAc(b1-2)Man(a1-6)[Man(a1-3)]Man(b1-4)GlcNAc(b1-4)GlcNAc
Summary of the method: as §1

[12] = molecular target: Neu5Ac(a2-6)Gal(b1-4)GlcNAc(b1-3)Gal(b1-3)GlcNAc
Summary of the method: as §1

[13] = molecular target: Neu5Ac(a2-6)Gal(b1-4)GlcNAc(b1-3)Gal(b1-4)GlcNAc
Summary of the method: as §1

[14] = molecular target: Neu5Ac(a2-6)Gal(b1-4)GlcNAc(b1-3)Gal(b1-4)GlcNAc(b1-3)Gal(b1-4)GlcNAc
Summary of the method: as §1

[15] = molecular target: Neu5Ac(a2-6)Gal(b1-4)GlcNAc(b1-3)Gal(b1-4)[Fuc(a1-3)]GlcNAc(b1-3)Gal(b1-4)[Fuc(a1-3)]GlcNAc
Summary of the method: as §1

[16] = molecular target: Neu5Ac(a2-6)Gal(b1-4)GlcNAc(b1-3)GalNAc
Summary of the method: as §1

[17] = molecular target: Neu5Ac(a2-6)Gal(b1-4)GlcNAc6S
Summary of the method: as §1

Neu5Ac(a2-6)GalNAc = molecular target: Neu5Ac(a2-6)GalNAc
Summary of the method: as §1

[18] = molecular target: Neu5Ac(a2-6)GalNAc(b1-4)GlcNAc
Summary of the method: as §1

[19] = molecular target: Neu5Ac(a2-6)GlcNAc(b1-4)GlcNAc
Summary of the method: as §1

[20] = molecular target: Neu5Ac(a2-6)GlcNAc(b1-4)GlcNAc(b1-4)GlcNAc
Summary of the method: as §1

Neu5Ac(a2-8)Neu5Ac = molecular target: Neu5Ac(a2-8)Neu5Ac
Summary of the method: as §1

[21] = molecular target: Neu5Ac(a2-8)Neu5Ac(a2-3)Gal(b1-3)GalNAc(b1-4)[Neu5Ac(a2-8)Neu5Ac(a2-3)]Gal(b1-4)Glc
Summary of the method: as §1

[22] = molecular target: Neu5Ac(a2-8)Neu5Ac(a2-3)Gal(b1-4)Glc
Summary of the method: as §1

[23] = molecular target: Neu5Ac(a2-8)Neu5Ac(a2-3)[Gal(b1-3)GalNAc(b1-4)]Gal(b1-4)Glc
Summary of the method: as §1

[24] = molecular target: Neu5Ac(a2-8)Neu5Ac(a2-3)[GalNAc(b1-4)]Gal(b1-4)Glc
Summary of the method: as §1

[25] = molecular target: Neu5Ac(a2-8)Neu5Ac(a2-8)Neu5Ac
Summary of the method: as §1

[26] = molecular target: Neu5Ac(a2-8)Neu5Ac(a2-8)Neu5Ac(a2-3)Gal(b1-4)Glc
Summary of the method: as §1

[27] = molecular target: Neu5Ac(a2-8)Neu5Ac(a2-8)Neu5Ac(a2-3)[GalNAc(b1-4)]Gal(b1-4)Glc
Summary of the method: as §1

[28] = molecular target: Neu5Ac(a2-8)Neu5Ac(a2-8)Neu5Ac(a2-8)Neu5Ac(a2-3)[GalNAc(b1-4)]Gal(b1-4)Glc
Summary of the method: as §1

[29] = molecular target: Neu5Ac(b2-6)Gal(b1-4)GlcNAc
Summary of the method: as §1

Neu5Ac(b2-6)GalNAc = molecular target: Neu5Ac(b2-6)GalNAc
Summary of the method: as §1

[30] = molecular target: Neu5Ac9Ac(a2-3)Gal(b1-3)GlcNAc
Summary of the method: as §1

[31] = molecular target: Neu5Ac9Ac(a2-3)Gal(b1-4)GlcNAc
Summary of the method: as §1

[32] = molecular target: Neu5Ac9Ac(a2-6)Gal(b1-4)GlcNAc
Summary of the method: as §1

[33] = molecular target: Neu5Gc(a2-3)Gal(b1-3)GlcNAc
Summary of the method: as §1

[34] = molecular target: Neu5Gc(a2-3)Gal(b1-3)[Fuc(a1-4)]GlcNAc
Summary of the method: as §1

Neu5Gc(a2-3)Gal(b1-4)Glc = molecular target: Neu5Gc(a2-3)Gal(b1-4)Glc
Summary of the method: as §1

[35] = molecular target: Neu5Gc(a2-3)Gal(b1-4)GlcNAc
Summary of the method: as §1

[36] = molecular target: Neu5Gc(a2-3)Gal(b1-4)[Fuc(a1-3)]GlcNAc
Summary of the method: as §1

[37] = molecular target: Neu5Gc(a2-6)Gal(b1-4)GlcNAc
Summary of the method: as §1

Neu5Gc(a2-6)GalNAc = molecular target: Neu5Gc(a2-6)GalNAc
Summary of the method: as §1

[38] = molecular target: Neu5Gc(b2-6)Gal(b1-4)GlcNAc
Summary of the method: as §1

B1: UEA-I (Ulex europaeus), P22972 (protein)
chain: SDDLSFKFKNFSQNGKDLSFQGDASVIETGVLQLNKVGNNLPDETGGIARYIAPIHIWNCNTGEVASFITSFSFFMETSANPKAATDGLTFFLAPPDSPLRRAGGYFGLFEDTKDNDSSYQTVAVEFDTIGSPVNFDDPGFPHIGIDVNRVKSINAERWNKRYGLNNVANVEIIYEASSKTLTASLTYPSDQTSISVTSIVDLKEILPEWVSVGFSGGTYIGRQATHEVLNWYFTSNLIN
With B1 the “glycan array binding signal (z-score)” value [1] was -0.178, the “glycan array binding signal (z-score)” value [2] was -0.179 and the “glycan array binding signal (z-score)” value [3] was -0.183. For the same binder, the “glycan array binding signal (z-score)” value [4] was -0.179, the “glycan array binding signal (z-score)” value [5] was -0.179 and the “glycan array binding signal (z-score)” value [6] was -0.184. For the same binder, the “glycan array binding signal (z-score)” value [7] was -0.17, the “glycan array binding signal (z-score)” value [8] was -0.184 and the “glycan array binding signal (z-score)” value [9] was -0.176. The “glycan array binding signal (z-score)” value [10] was -0.175, the “glycan array binding signal (z-score)” value [11] was -0.176 and the “glycan array binding signal (z-score)” value [12] was -0.185. The “glycan array binding signal (z-score)” value [13] was -0.179, the “glycan array binding signal (z-score)” value [14] was -0.176 and the “glycan array binding signal (z-score)” value [15] was -0.179. For the same binder, the “glycan array binding signal (z-score)” value [16] was -0.182, the “glycan array binding signal (z-score)” value [17] was -0.168 and the “glycan array binding signal (z-score)” value (Neu5Ac(a2-6)GalNAc) was -0.185. The “glycan array binding signal (z-score)” value [18] was -0.156, the “glycan array binding signal (z-score)” value [19] was 0.034 and the “glycan array binding signal (z-score)” value [20] was -0.098. The “glycan array binding signal (z-score)” value (Neu5Ac(a2-8)Neu5Ac) was -0.181, the “glycan array binding signal (z-score)” value [21] was -0.152 and the “glycan array binding signal (z-score)” value [22] was -0.182. The “glycan array binding signal (z-score)” value [23] was -0.184, the “glycan array binding signal (z-score)” value [24] was -0.173 and the “glycan array binding signal (z-score)” value [25] was -0.183. The “glycan array binding signal (z-score)” value [26] was -0.186, the “glycan array binding signal (z-score)” value [27] was -0.167 and the “glycan array binding signal (z-score)” value [28] was -0.169. For the same binder, the “glycan array binding signal (z-score)” value [29] was -0.183, the “glycan array binding signal (z-score)” value (Neu5Ac(b2-6)GalNAc) was -0.179 and the “glycan array binding signal (z-score)” value [30] was -0.182. For the same binder, the “glycan array binding signal (z-score)” value [31] was -0.181, the “glycan array binding signal (z-score)” value [32] was -0.181 and the “glycan array binding signal (z-score)” value [33] was -0.182. For the same binder, the “glycan array binding signal (z-score)” value [34] was -0.186, the “glycan array binding signal (z-score)” value (Neu5Gc(a2-3)Gal(b1-4)Glc) was -0.187 and the “glycan array binding signal (z-score)” value [35] was -0.18. For the same binder, the “glycan array binding signal (z-score)” value [36] was -0.182, the “glycan array binding signal (z-score)” value [37] was -0.18 and the “glycan array binding signal (z-score)” value (Neu5Gc(a2-6)GalNAc) was -0.178. For the same binder, the “glycan array binding signal (z-score)” value [38] was -0.186.
